Results published in the supplement of paper PMC11417369.
This is one part of the list.

These sequences were tested on PfSIP2 AP2 domain 1 (GST-tagged) (assay: gcPBM binding intensity (ln(normalized median fluorescence intensity)); higher = stronger DNA binding).
Method in brief: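 An Agilent 4 × 180k array carrying primer-extended double-stranded 36-bp intergenic genomic probes and negative controls received GST-tagged P. falciparum DNA-binding domains expressed in E. coli, about 25 μg on average, for 1 h. The binding buffer contained 1× PBS, 1% milk, 0.2 mg/ml BSA, 0.5% salmon testes DNA and 0.03% Triton X-100. Binding intensity is the top Masliner-normalised natural-log median intensity across replicate spots of either probe orientation, read after Alexa488 anti-GST antibody staining and a 488 nm scan.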

| Sequence | gcPBM binding intensity (ln) |
| --- | --- |
| TTTAAACGTTATATAGTGCATGTCATATTTTATTAT | 9.11 |
| TACGTAATAATATGCACACAAATAAACTTTATAAAT [CACACA_site3501] | 8.22 |
| CAAAAAAGTAAAACGTGTACATATATACATAAAAAT [XGTACX_site5639] | 7.18 |
| CTTTTTTATATCTCTACACACATTTATAACAATTTG [CACACA_site1398] | 7.35 |
| AAAAAATTATACCTTTGTACATAAATAAAATATTAT [XGTACX_site418] | 6.86 |
| ATAACATAAGGAAATACACACATATATAAGTATATA [CACACA_site778] | 6.99 |
| ACCCATTGCTCACGTGCACACATAGAAAAATAATTC [CACACA_site4389] | 10.1 |
| TATGTATATATTTACGCATGCTACTCTATTTTGAGA [TGCATGCA_site990] | 6.89 |
| AGGTTTCATTTAGCATGTACATATTATAAAAATTGT [XGTACX_site8448] | 7.03 |
| TCTGTTAATATTTATACACACATATATATATATATA [CACACA_site1139] | 9.41 |
| AAGATTACTTATATATGTACACATAATACAAATGTC [XGTACX_site520] | 7.03 |
| TTTTTCATAAAAAAATAAAAAAAATTAACATAGAAA [XGTACX_negctrl_site11] | 6.7 |
| ATAATATATACTATATGTACATATCTTTTCCTCTTT [XGTACX_site5553] | 7.1 |
| TTTTAGAGTGGTATATATTAATTTTTAATAAAAAAA [CACACA_negctrl_site1652] | 6.82 |
| AATAAAAGAAGACAGAGTACACAGGTTGTATTTTCC [XGTACX_site7208] | 6.82 |
| TGTGCATAAATTTATGCACACATAAAAAAAAAAAAA [CACACA_site8954] | 9.95 |
| ATAGTATCTGGTAGCTGTACGAGTCGTAGAGTGTAG [XGTACX_site2030] | 7.32 |
| TGGGAAGGGTGGGAAACTTTATCAAAAACTTATTAC [GTGCAC_negctrl_site16] | 7.04 |
| TATGTATTTTTTAAGTGTACCTATATATATATATAT [XGTACX_site7934] | 9.28 |

| Sequence | gcPBM binding intensity (ln) |
| --- | --- |
| AGAAAGGTGGTATTAAAAGAATAACCTATGAATAAA [GTGCAC_negctrl_site325] | 6.79 |
| TATAATAATAATTATTGTACGATTAGGTTAATTCAT [XGTACX_site1984] | 7.13 |
| AAATAATATTTTTTTTTTTTTTTTTTTTTATGTTAT [CACACA_negctrl_site809] | 6.81 |
| ATAGTCTTAATGACTACACACCTAACTATGCATGCA [CACACA_site5084] | 6.83 |
| ATACAGTTGCATATGGTGCACGAATAATACACCTAT | 11.3 |
| AAAAAAAAAAAAAAAACACACAAATCATAAATAAAT [CACACA_site478] | 7.5 |
| TGGTAGTATATCATAGAAATCATTGTATAACAAATA [XGTACX_negctrl_site569] | 6.72 |
| ATTTTTCTTTTTAATACACACAAAAGTGATACAAAC [CACACA_site3923] | 7.19 |
| TGTATTATATATACACAAATATTTATGTGTGTGTTT [XGTACX_negctrl_site475] | 7.1 |
| TTTTTTTGTATTTGTTTATTTAATGATAAAATTAAA [CACACA_negctrl_site225] | 7.23 |
| TTGTTCTATTTAAGTAGTACATACACACACATATAC [XGTACX_site8484] | 7.37 |
| ACATATATATATTCTACACACTTATAATATAATACA [CACACA_site2461] | 7.32 |
| ACTAAACTAATATGTACACACATATAACATTAATTT [CACACA_site7128] | 7.21 |
| TATATATATATATATAGTACATATTTATATATGAAA [XGTACX_site8488] | 9.32 |
| GAATTAAAATAATACGTACACACATGTATAATACAT [CACACA_site1004] | 7.1 |
| TTTCGTTCATAAAAAAGTACATATGAGCAAAAGGTA [XGTACX_site8936] | 7.46 |
| CACAATACTTTCATCACACATATATATATATATATA [CACACA_site4677] | 9.3 |
| CATCTTATATAATCATGTACATATAGAGACTTCTTT [XGTACX_site7685] | 7.01 |
| GGGGGAATTTACATGGGTACACATGTATTAAAAAAT [XGTACX_site4130] | 8.49 |

| Sequence | gcPBM binding intensity (ln) |
| --- | --- |
| TTTTTCTTACATGAGTGTACACACTTTTTTTCAGAA [XGTACX_site138] | 7.74 |
| TTATATGTATGGAGGTTTTTGTATATAGATATATAG [CACACA_negctrl_site177] | 6.91 |
| AATATAAACAAACACACACACATATATATATATATT [CACACA_site5592] | 7.41 |
| ATGTCATATAATAGTACACACATGAAAATATAAATA [CACACA_site3215] | 7.15 |
| AAAAAAAAAAAAAATAGTACAATACCCAAATATAAC [XGTACX_site6684] | 7.3 |
| ATAAAAAAAGGACACACACACATATATTTATTTATA [CACACA_site7438] | 6.9 |
| ACTATTAAAATGAATACACACAAATATAAAAATATA [CACACA_site4145] | 7.07 |
| GGTAGGGATTATACCACACACACATACACATAAATA [CACACA_site3179] | 7.11 |
| ACGCTACATAAATACGTGCACATCTTTTTGTGTATA [GTGCAC_site9675] | 9.17 |
| ATTTATTAATATCCCAGTACTCATGGGGAATAATGA [XGTACX_site4014] | 6.92 |
| TTGTGTAAAGGTATTATTGTATTATTCAAAATAAAA [XGTACX_negctrl_site167] | 6.97 |
| AATATATAATATATATGTACTTATATATAAAAGATA [XGTACX_site7635] | 7.75 |
| TGGAGGAACCTCATATGTACGTATAAATATATATTT [XGTACX_site5603] | 7.17 |
| CATATATATTTGTTCACACACACACTAATAAAAAAA [CACACA_site8787] | 7.32 |
| TTAAAGCACCCATGCACACACACAAAGGAAAAGAAA [CACACA_site233] | 9.69 |
| TGATAAATTAAAAATTGTACTATTATAATAATATAT [XGTACX_site6615] | 6.93 |
| TTTATATAAATTTATTCACACAACTAATTTTTTAAA [CACACA_site4848] | 7.02 |
| ACAATAAACATATATACACACACAAAAAAAAAAACA [CACACA_site8033] | 7.07 |
